In the RNAGym collection of RNA variant scans (doi:10.1101/gad.245936.114) one finds nonsense suppression data, which are given here for 167 variants.

The chains are these.
B1: tRNA (parent)
chain: CUCUCGGUAGCCAAGUUGGUUUAAGGCGCAAGACUUUAAUUUAUCACUACGAAAUCUUGAGAUCGGGCGUUCGACUCGCCCCCGGGAGAUUUUUUCCUCGAGCAA

This sample is rich in variants without activity.

The data set covers variants of B1. In words: nonsense suppression (GFP-seq) (ratio to wild type); higher = more function; SUP4oc tRNA, yeast GFP reporter sort-seq. In short, it runs like this: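 Nonsense suppression (GFPSEQ) is the median GFP/RFP ratio of each sorting bin, weighted by the variant's estimated share of cells in that bin and expressed relative to the unmutated parent tRNA. Yeast strains carried genome-integrated variants of an ochre-suppressor tRNA from a library with ~3% random mutations, plus a galactose-driven GFP ochre reporter and RFP, and were grown in raffinose/galactose medium containing 80 mg/L adenine. Cells were sorted into GFP/RFP bins, each bin was Illumina-sequenced (phred ≥30), and variants were kept only with ≥100 reads and ≥30 cells.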
In the case of C12G U70G, the nonsense suppression was at most 0.026.

Turning to U16G A30U C34G U35G, the nonsense suppression was at most 0.026.

For the variant C1A U4G A13U, the nonsense suppression was at most 0.026.

With U55A C64G, the nonsense suppression was at most 0.026.

As for U8C A30C, the nonsense suppression is at most 0.026.

Turning to A30C C64A C83U G88C A89C, the nonsense suppression is at most 0.026.

C11U A33U U57A G66A C77G: the nonsense suppression is at most 0.026.

In the case of G18U U21C, the nonsense suppression was at most 0.026.

In the case of U4G G61C C79U C82G, the nonsense suppression was at most 0.026.

In the case of U76G C82U, the nonsense suppression was at most 0.026.

As to G32A A89G, the nonsense suppression is at most 0.026.

Consider G26A G32A U63A G85U G88A, for which the nonsense suppression was at most 0.026.

C11A C12U G59A U71A: the nonsense suppression is at most 0.026.

Consider G6U U57C C82A, for which the nonsense suppression was at most 0.026.

With U2G C27A U76C, the nonsense suppression was at most 0.026.

G32U G84C: the nonsense suppression is at most 0.026.

For G19C C75G, the nonsense suppression was at most 0.026.

Regarding C29G U76C A89C, the nonsense suppression was at most 0.026.

Turning to A24C C29G C64G G65U C75G, the nonsense suppression was at most 0.026.

Turning to G19C A30G A60U G66C A74C C75A, the nonsense suppression is at most 0.026.

For the variant U4A A31G, the nonsense suppression was at most 0.026.

Consider U8G G59U C80G, for which the nonsense suppression was at most 0.026.

For the variant C3U U16G G18U U57C, the nonsense suppression was at most 0.026.

On to G19A G26C, for which the nonsense suppression was at most 0.026.

A23G G28A G59C C82G: the nonsense suppression was at most 0.026.

Take C5A G61U C79U: the nonsense suppression was at most 0.026.

In the case of G6U U17G C27G U70C, the nonsense suppression was at most 0.026.

As to G6C C11A, the nonsense suppression was at most 0.026.

With G19U G59U, the nonsense suppression was at most 0.026.

Regarding U2G G19A, the nonsense suppression was at most 0.026.

Take C5U G59U G66C U71G A74C: the nonsense suppression is at most 0.026.

Regarding A30U A74C, the nonsense suppression was 0.0264.

Take G67U C77U G84A G88C: the nonsense suppression was at most 0.026.

As for A23G A60G, the nonsense suppression is 0.0474.

A23G A54U C72A: the nonsense suppression was at most 0.026.

With U20A G32U, the nonsense suppression was at most 0.026.

Take U21G U70A U71C: the nonsense suppression is at most 0.026.

U16G A54U U63G: the nonsense suppression is 0.278.

Take A24G U57C A60G C75U: the nonsense suppression was at most 0.026.

Regarding G6A A9C C56G U76A C82G C83A, the nonsense suppression was at most 0.026.

On to C1U G15C U16A A33C G61A, for which the nonsense suppression was at most 0.026.

A13C U17G C75A: the nonsense suppression is 1.1.

Turning to G15A G18U C81U C82A, the nonsense suppression was at most 0.026.

With U2G G61A, the nonsense suppression was at most 0.026.

Take A9G A13C A33C: the nonsense suppression was at most 0.026.

Regarding A33U C64G U76C, the nonsense suppression is at most 0.026.

For the variant U4G A60U G65C, the nonsense suppression was at most 0.026.

A14G A30C U63G: the nonsense suppression is at most 0.026.

For the variant G15A G65A, the nonsense suppression was at most 0.026.

Take A14G A23U: the nonsense suppression was at most 0.026.

On to U2C A14G G18U C34G G88A, for which the nonsense suppression is at most 0.026.

In the case of G19U C27A, the nonsense suppression is at most 0.026.

Regarding U2C U57A, the nonsense suppression was determined as 0.0292.

In the case of C12G A33C A74C, the nonsense suppression is at most 0.026.

Take A14G A33U C56G U76A: the nonsense suppression is at most 0.026.

For the variant A14G G19A A31U G66C A74C G78U, the nonsense suppression was at most 0.026.

Regarding C27G U58A U63A, the nonsense suppression was at most 0.026.

For A24G A60G, the nonsense suppression was determined as 0.0307.

A24G C64A G66C: the nonsense suppression was at most 0.026.

For C12G G88C, the nonsense suppression is at most 0.026.

Take C29U G88A: the nonsense suppression is at most 0.026.

On to U20G A24G G61C G69U, for which the nonsense suppression is at most 0.026.

As for U21C C34A, the nonsense suppression was at most 0.026.

For the variant U8G A62C G73A G88C, the nonsense suppression was at most 0.026.

Regarding C5U A30U G88A, the nonsense suppression was at most 0.026.

Regarding C11U, the nonsense suppression is at most 0.026.

Regarding G6C C56U, the nonsense suppression was at most 0.026.

Take G61C G85C: the nonsense suppression amounted to 0.045.

As to C75A C77A, the nonsense suppression is at most 0.026.

In the case of C1G G19U A60C U71A, the nonsense suppression was at most 0.026.

Regarding C12U G59C A87U, the nonsense suppression was at most 0.026.

As to G7U U16G C80G, the nonsense suppression was at most 0.026.

Regarding A13C G26C U55C, the nonsense suppression is at most 0.026.

Turning to C11U U16G G28U G69C, the nonsense suppression is at most 0.026.

A31U G59C: the nonsense suppression is at most 0.026.

Turning to U20G G67U, the nonsense suppression is at most 0.026.

On to A31C G59A G88U, for which the nonsense suppression was at most 0.026.

C1U A9G C27G A33C G73A: the nonsense suppression is at most 0.026.

Consider U22A A24G C27G G61C G86A, for which the nonsense suppression was at most 0.026.

As for C1A A89U, the nonsense suppression is at most 0.026.

For the variant G10C A14G G32C C80A A87G, the nonsense suppression is at most 0.026.

In the case of G19C C72G, the nonsense suppression is at most 0.026.

Regarding U8A U20C C81U, the nonsense suppression was at most 0.026.

As to U8A U20C C81G, the nonsense suppression was at most 0.026.

As to C3U C34A A62C G67A G84U, the nonsense suppression is at most 0.026.

Consider C3U G84C, for which the nonsense suppression is at most 0.026.

For the variant A62C G78U, the nonsense suppression was at most 0.026.

For the variant A62C G78A, the nonsense suppression is at most 0.026.

For C34G U55C C77A, the nonsense suppression is at most 0.026.

Take C29G A54C U71G: the nonsense suppression is at most 0.026.

G7A G28U C34A: the nonsense suppression is at most 0.026.

Consider G6A A62C G67U, for which the nonsense suppression is at most 0.026.

Consider A62C A74U, for which the nonsense suppression was at most 0.026.

Take C11G A13U A62C: the nonsense suppression was at most 0.026.

With A13U C83U, the nonsense suppression amounted to 0.157.

On to G59A G65U, for which the nonsense suppression is at most 0.026.

Regarding G61U U63C, the nonsense suppression came out at 0.808.

For C11G C12U G25U, the nonsense suppression was at most 0.026.

Take A31G A62G G67C G73C G88C: the nonsense suppression is at most 0.026.

With G7A U16G G26C U71G, the nonsense suppression is at most 0.026.

Consider A54C C64U, for which the nonsense suppression is 0.0402.

As to G10A A14C A74C, the nonsense suppression was at most 0.026.

G7A G15A A31G C79A: the nonsense suppression is at most 0.026.

For the variant C34G U57C C68A, the nonsense suppression was at most 0.026.

Regarding G19U G25A A31G U35G C64G, the nonsense suppression is at most 0.026.

For the variant C5A C29A A30U, the nonsense suppression was at most 0.026.

Consider A14G A33U, for which the nonsense suppression was at most 0.026.

As for U2C A23G A62C G67A, the nonsense suppression was at most 0.026.

Turning to U58G G66U, the nonsense suppression was at most 0.026.

Take U8C A9U G85A G88A: the nonsense suppression was at most 0.026.

As for G6U C11A A30G G73C, the nonsense suppression is at most 0.026.

Regarding C5A A24U G66A, the nonsense suppression was at most 0.026.

As to G59U C72G C79G G86C, the nonsense suppression is at most 0.026.

For G69U G86U, the nonsense suppression was at most 0.026.

Take G7U G15U A87C: the nonsense suppression is at most 0.026.

For G25C G73U, the nonsense suppression was at most 0.026.

On to C29U A74C C75U, for which the nonsense suppression was at most 0.026.

On to G6U A89U, for which the nonsense suppression is at most 0.026.

For G15C U21G, the nonsense suppression is at most 0.026.

Consider A54C C82G, for which the nonsense suppression was at most 0.026.

Turning to A9G C11A U16C C34G A74C, the nonsense suppression is at most 0.026.

As to U4A C83G G88C, the nonsense suppression was at most 0.026.

With G6A U71C, the nonsense suppression was at most 0.026.

In the case of C11A G26U A62G U63G G67U A74G, the nonsense suppression is at most 0.026.

As to C56G G59A C81G, the nonsense suppression was at most 0.026.

Consider G7C C11G G18U U22A A31U A87C, for which the nonsense suppression was at most 0.026.

A13C A60G G78U: the nonsense suppression was at most 0.026.

As for A30C C82A, the nonsense suppression was at most 0.026.

As for G6C U21A G69C, the nonsense suppression was at most 0.026.

C11U G85U A87C: the nonsense suppression is at most 0.026.

Turning to C1U A24U, the nonsense suppression was at most 0.026.

Regarding U8G G73C, the nonsense suppression is at most 0.026.

Take G32U U63A C82U: the nonsense suppression was 0.0283.

In the case of G19U A54C G86A, the nonsense suppression was at most 0.026.

Turning to G10C G65C U76G, the nonsense suppression was at most 0.026.

In the case of U8G U21A C29G C79G, the nonsense suppression was at most 0.026.

For the variant U4G U76G G84U, the nonsense suppression was at most 0.026.

As to A31G G67U G69U, the nonsense suppression is at most 0.026.

On to C12U G19U U57C C72G G78U, for which the nonsense suppression was at most 0.026.

Take A14C G65C C80G A87C: the nonsense suppression was at most 0.026.

Consider U35G U55C, for which the nonsense suppression was at most 0.026.

Turning to C3U G67A, the nonsense suppression is at most 0.026.

For A30C, the nonsense suppression was at most 0.026.

As for U8G G10A C11G C12A, the nonsense suppression is at most 0.026.

For U4A C5A U17C G28C U35A C79A C82A, the nonsense suppression is at most 0.026.

C5U G19U A54G U58G: the nonsense suppression is at most 0.026.

Consider U35C C80U, for which the nonsense suppression is at most 0.026.

Regarding C77U C82G, the nonsense suppression was at most 0.026.

Turning to G10C U17G G59C, the nonsense suppression is at most 0.026.

On to G15C A24G C72A, for which the nonsense suppression was at most 0.026.

Take G19C G65C G78A: the nonsense suppression is at most 0.026.

On to G18C G28C G61A U71C U76A, for which the nonsense suppression was at most 0.026.

For G7C G25U C68U, the nonsense suppression was at most 0.026.

With U17A G28A A30U C56A A60C, the nonsense suppression was at most 0.026.

For the variant A30C U57C, the nonsense suppression is at most 0.026.

In the case of C5G G7U C11G, the nonsense suppression was at most 0.026.

In the case of G6C G26C, the nonsense suppression is at most 0.026.

Take C3A U35A: the nonsense suppression is at most 0.026.

Turning to U58G A87C, the nonsense suppression is at most 0.026.

Turning to G59A A74C, the nonsense suppression is at most 0.026.

With A54C G67C, the nonsense suppression is at most 0.026.

Consider C1U C34A U58G, for which the nonsense suppression is at most 0.026.

For the variant U21C G26U C34U, the nonsense suppression is at most 0.026.

As for U2C C3A G18A C83G, the nonsense suppression is at most 0.026.

As for U4G A24G C27U A89C, the nonsense suppression was at most 0.026.

Take C56U C77G: the nonsense suppression was at most 0.026.

Turning to U21A A74G C75A C77U C80U, the nonsense suppression is at most 0.026.
